Results: publication PMC6919601, “Identification of Plasmodium dipeptidyl aminopeptidase allosteric inhibitors by high throughput screening” (PLoS ONE, 2019)
The whole screen tested about 110,000 compounds, of which about 230 (0.21%) showed an effect of 50% or more. This is one part of the list.

Target: DPAP1 (Plasmodium falciparum, UniProt Q8IIJ9)
Test: primary screen, percent inhibition; read by cleavage of a fluorogenic dipeptide substrate; higher = more effect of the substance
Design: species or system P. falciparum D10 trophozoite lysates; single well
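Also: 30 min substrate incubation versus DMSO and 10 µM JCP410 controls.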

Sequence of DPAP1 (Q8IIJ9 whole entry, looked up): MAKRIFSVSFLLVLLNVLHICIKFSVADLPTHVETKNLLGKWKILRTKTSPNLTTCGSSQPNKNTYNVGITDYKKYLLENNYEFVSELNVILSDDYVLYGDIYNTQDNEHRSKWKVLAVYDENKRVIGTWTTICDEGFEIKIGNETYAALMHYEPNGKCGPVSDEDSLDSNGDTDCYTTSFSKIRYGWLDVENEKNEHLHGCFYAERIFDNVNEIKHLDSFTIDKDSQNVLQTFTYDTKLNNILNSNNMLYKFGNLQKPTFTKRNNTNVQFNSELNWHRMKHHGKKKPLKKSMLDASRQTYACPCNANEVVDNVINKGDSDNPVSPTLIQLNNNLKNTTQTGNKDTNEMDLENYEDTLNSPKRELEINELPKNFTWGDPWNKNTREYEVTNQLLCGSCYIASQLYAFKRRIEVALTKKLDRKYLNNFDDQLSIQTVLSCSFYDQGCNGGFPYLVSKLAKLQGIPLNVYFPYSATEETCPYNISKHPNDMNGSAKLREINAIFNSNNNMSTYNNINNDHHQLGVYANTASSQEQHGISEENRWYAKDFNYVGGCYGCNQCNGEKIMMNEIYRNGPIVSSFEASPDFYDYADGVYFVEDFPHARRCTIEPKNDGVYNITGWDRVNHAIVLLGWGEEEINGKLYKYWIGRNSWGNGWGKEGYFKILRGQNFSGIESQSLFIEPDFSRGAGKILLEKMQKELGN

| SMILES | % Inhibition @ 10 uM |
| --- | --- |
| CC(=O)N1CCN(Cc2ccc(Br)cc2)CC1 | -0.0494% |
| CCOC(=O)N1CCN(c2cccc(C)c2C)CC1 | -1.02% |
| CC12CN3CC(C)(CN(C1)C3c1ccco1)C2=O (centres unmarked) | -2.55% |
| O=C(NS(=O)(=O)c1ccc(Cl)cc1)c1ccccc1O | 3.54% |
| O=[N+]([O-])c1ccc(N2CCN(Cc3c(Cl)cccc3Cl)CC2)cc1 | -0.0494% |
| CC(=O)Nc1cccc(NC(=O)c2cccc(C)c2)c1 | 3.54% |
| CCOC(=O)c1c(NC(=S)NC2CCCCC2)sc2c1CCCC2 | -3.77% |
| CCOc1ccc(-c2nc(CSCC(=O)N3CCC(C(N)=O)CC3)c(C)o2)cc1 | 0.718% |
| O=C(Nc1c(-c2ccc(F)cc2)nc2ccccn12)c1cccc(C(F)(F)F)c1 | -4.23% |
| CNC(=O)c1ccc(CSc2nc3ccncc3n2Cc2cccc(C)c2)cc1 | -0.637% |
| O=C(O)C1CCCCC1C(=O)N1CCN(c2ccccc2F)CC1 (centres unmarked) | 3.86% |
| CCN1C(=O)CC(C(=O)Nc2ccc(OC)cc2)S/C1=N\c1cccc(F)c1 (centres unmarked) | 1.52% |
| CCOCCCNC(=O)c1ccc(CNC(=O)c2ccc3c(c2)OCO3)cc1 | -3.78% |
| Cc1cc2c(c(=O)n1Cc1ccccc1)C(c1cccc(Cl)c1)C(C#N)=C(N)O2 (centres unmarked) | -5.01% |
| O=C(CCC(=O)N1CC2CC(C1)c1cccc(=O)n1C2)NC1CCCCC1 (centres unmarked) | 14.3% |
| Cc1cccc(OCC(=O)Nc2ccc(C(=O)c3ccccc3)cc2)c1 | -0.872% |
| COc1ccc(NC(=O)c2ccccc2Br)c(OC)c1 | 2.22% |
| CCC(Sc1nc(=O)cc(N)n1CCc1ccccc1)C(=O)Nc1ccc(Cl)cn1 (centres unmarked) | 17.3% |
| CCn1c(=O)[nH]c2cc(C(=O)Nc3cc(C)cc(C)c3)ccc2c1=O | -1.61% |
| COCCn1c(Cc2cccn2C)nnc1SCC(=O)NCc1ccccc1Cl | 1.1% |
| Cc1c(Br)c([N+](=O)[O-])nn1CC(=O)NC1CCCCC1 | -1.5% |
| CNC(=O)CN(C)S(=O)(=O)c1ccc(OC)c(OC)c1 | 1.03% |
| CC(=O)c1c(C(C)=O)c(C)n(-c2ccc(C)c(C)c2)c1C | 1% |
| Cc1ccc(-c2cccc(C(=O)N[C@@H](CC(C)C)C(=O)NCC#N)c2)s1 | -3.48% |
| Nc1c(Br)cc(Br)c2cccnc12 | -4.96% |

| SMILES | % Inhibition @ 10 uM |
| --- | --- |
| CC(=O)N[C@H]1[C@H](Oc2ccc(C)c(C)c2)O[C@H](CO)[C@@H](O)[C@@H]1O | 0.815% |
| CCOC(=O)N1CCC(NC(=O)C2=CCN(S(=O)(=O)c3ccc(OC)cc3)CC2)CC1 | 1.93% |
| O=C1NC(c2ccccc2)=N/C1=C\c1ccc(Cl)cc1 | 3.95% |
| Cc1oc2cc(OC(C)C)ccc2c(=O)c1Oc1ccccc1 | 2.37% |
| CC1CCN(Cc2nnc(-c3ccccc3)o2)CC1 | -2.99% |
| Cc1ccc2oc(=O)c3cc(C(=O)N(Cc4ccco4)CC4CCCO4)sc3c2c1 (centres unmarked) | 3.88% |
| Cc1cc(N2C(=O)C(O)=C(C(=O)c3cccs3)C2c2ccc(Br)cc2)no1 (centres unmarked) | 5.37% |
| COc1ccc(CN2CCN(Cc3ccccc3)CC2)cc1OC | 1.38% |
| CCCCCCSC1=C(C#N)C(c2ccc(O)cc2)CC(=O)N1 (centres unmarked) | -1.08% |
| O=C(Nc1cccnc1)C1CCN(c2ncnc3c2nc2n3CCCCC2)CC1 | 0.483% |
| CN1CCN(C(=O)c2nc(SCc3ccc(F)cc3)ncc2Cl)CC1 | 0.758% |
| Nc1c(C(=O)Nc2ccccc2)sc2nc(-c3ccc(F)cc3)cc(-c3ccccc3)c12 | 7.55% |
| O=C(NCCc1c[nH]c2ccccc12)c1ccco1 | 4.93% |
| CC(C(=O)N1CCC2(CC1)OCCO2)n1sc2ccccc2c1=O (centres unmarked) | -10% |
| CCCN1CCN(C(=O)c2sc3ncn(CC(=O)N4CCCCC4C)c(=O)c3c2C)CC1 (centres unmarked) | -3.93% |
| O=C(CSc1nc2c(c(=O)n1Cc1ccccc1)SCC2)N1CCC(Cc2ccccc2)CC1 | -1.68% |
| CC(C)(CO)C(O)C(=O)NC1CCCCC1 (centres unmarked) | 0.962% |
| O=C(NCc1ccco1)c1ccc(COc2cc(Cl)ccc2Cl)o1 | -1.33% |
| c1nnc2c3c4c(sc3n3cnnc3n12)CCCCC4 | -1.6% |
| Cc1cc(N2CCC(C)CC2)n2nc(C)c(-c3ccc(Cl)cc3)c2n1 | -1.75% |
| O=C1c2ccccc2C(=O)C1c1ccc(C2C(=O)c3ccccc3C2=O)cc1 | 5.28% |
| CCN(CC)S(=O)(=O)c1ccc(/N=C/c2c(C)nn(-c3ccc(F)cc3)c2O)cc1 | 0.851% |
| O=C(NCc1cccc(F)c1)c1c(O)nc2c(c1O)CCCC2 | 4.35% |
| COC(=O)c1coc(C(=O)[C@H](CCc2ccccc2)NC(=O)CCC2CCCCC2)n1 | 7.14% |
| O=C(Nc1cnn(Cc2ccccc2)c1)C1CCCC1 | -1.78% |
